Assay results published in patent US11787850B2, “Peptidic TGF-beta antagonists” (priority 2015, dated 2023).

B1: peptide A dimer: dimeric form of peptide A (protein)
chain: TMENVVHELELYNTGYYLGMFMNSFAVFQECGLWVLTDANLTKDYIDGVYDNAEYAERFMEENEGHIVDIHDFSLGSSPHVRKHFPETWIWLDTNMGSRIYQEFEVTVPDSITSWVATGFVISEDLGLGLTTTPVELQAFQPFFIFLNLPYSVIRGEEFAL
B2: peptide A monomer: monomeric form of peptide A (protein)
chain: B1 chain

Tested on: TGF-β1-induced Smad3-driven (CAGA12-lux) transcriptional activity
Experiment: Luciferase reporter assay in HEK293-(CAGA)12 cells
Format: cell-based
Details: dimeric or monomeric peptide A, 100 pM TGF-b overnight (FIG. 41)
Protocol: FIGS. 5A and 5B illustrate that some small molecular weight CD109-based peptides (Peptide A, P28, P21 and […]) inhibit TGF-β1-induced Smad3-driven transcriptional activity. […] Cell lysates were analyzed for luciferase activity and data are expressed as mean±standard deviation of relative light units (RLU). […] Under the conditions tested, peptide A, P28, P21 and P16 inhibited TGF-β1-induced transcriptional (CAGA12-lux) activity.
FIG. 6 illustrates that the small molecular weight CD109-based peptide P16 (but not P16-2, P11 or X-4) inhibit TGF-β1-induced Smad3-driven transcriptional activity. […] Cell lysates were analyzed for luciferase activity and data are expressed as mean±standard deviation of luciferase activity. […]
FIG. 8 illustrates that DMSO treatment enhances the TGF-β inhibitory activity of Peptide X but not P21 or P16. […] Cell lysates were analyzed for luciferase activity and data are expressed as mean±standard deviation of luciferase activity. […]
FIG. 25 is a graph showing the ability of CD109-based peptides to inhibit TGF-β-induced, Smad3-driven transcriptional activity. […] Cell lysates were analyzed for luciferase activity and data are expressed as mean±standard deviation of luciferase activity. […]

Molecule	effect on TGF-b-dependent Smad3 (CAGA12-lux) transcriptional activity
B1	inhibits
B2	potentiates
